Test results: article PMC6061476, “Characterization of the caprolactam degradation pathway in Pseudomonas jessenii using mass spectrometry-based proteomics” (Applied Microbiology and Biotechnology, 2018)

Key:
Assay type in all cases: biochemical
[1] = biological target: T1, caprolactamase (CapA, CapB; α and β subunits) (Pseudomonas jessenii, UniProt A0A2W0EVE0+A0A2W0FH34); experiment: UPLC-MS of 6-ACA formation and caprolactam loss; conditions: 2 mM caprolactam, 5 mM ATP, 10 mM MgCl2, 50 mM ammonium bicarbonate, pH 8.5; E. coli cell-free extract
Chain of UniProt A0A2W0EVE0 (A0A2W0EVE0 whole entry, looked up): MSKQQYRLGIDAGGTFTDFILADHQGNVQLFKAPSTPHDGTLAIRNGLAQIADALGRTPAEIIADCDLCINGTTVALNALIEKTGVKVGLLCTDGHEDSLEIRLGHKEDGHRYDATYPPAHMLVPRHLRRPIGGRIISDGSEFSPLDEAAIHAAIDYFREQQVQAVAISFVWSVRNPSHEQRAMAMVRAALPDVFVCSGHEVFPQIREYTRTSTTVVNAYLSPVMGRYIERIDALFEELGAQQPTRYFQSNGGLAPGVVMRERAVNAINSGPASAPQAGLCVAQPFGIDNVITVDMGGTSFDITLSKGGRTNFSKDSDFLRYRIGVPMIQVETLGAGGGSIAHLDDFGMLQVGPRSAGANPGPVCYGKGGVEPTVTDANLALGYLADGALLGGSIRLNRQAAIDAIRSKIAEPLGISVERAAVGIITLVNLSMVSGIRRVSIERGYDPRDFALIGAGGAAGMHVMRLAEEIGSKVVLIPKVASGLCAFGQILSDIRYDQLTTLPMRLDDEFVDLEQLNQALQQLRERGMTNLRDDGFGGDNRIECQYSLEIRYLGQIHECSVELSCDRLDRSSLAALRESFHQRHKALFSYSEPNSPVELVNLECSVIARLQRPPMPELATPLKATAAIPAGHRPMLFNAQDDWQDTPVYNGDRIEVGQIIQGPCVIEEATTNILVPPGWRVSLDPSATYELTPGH
Chain of UniProt A0A2W0EVE0 (A0A2W0FH34 whole entry, looked up, further chain): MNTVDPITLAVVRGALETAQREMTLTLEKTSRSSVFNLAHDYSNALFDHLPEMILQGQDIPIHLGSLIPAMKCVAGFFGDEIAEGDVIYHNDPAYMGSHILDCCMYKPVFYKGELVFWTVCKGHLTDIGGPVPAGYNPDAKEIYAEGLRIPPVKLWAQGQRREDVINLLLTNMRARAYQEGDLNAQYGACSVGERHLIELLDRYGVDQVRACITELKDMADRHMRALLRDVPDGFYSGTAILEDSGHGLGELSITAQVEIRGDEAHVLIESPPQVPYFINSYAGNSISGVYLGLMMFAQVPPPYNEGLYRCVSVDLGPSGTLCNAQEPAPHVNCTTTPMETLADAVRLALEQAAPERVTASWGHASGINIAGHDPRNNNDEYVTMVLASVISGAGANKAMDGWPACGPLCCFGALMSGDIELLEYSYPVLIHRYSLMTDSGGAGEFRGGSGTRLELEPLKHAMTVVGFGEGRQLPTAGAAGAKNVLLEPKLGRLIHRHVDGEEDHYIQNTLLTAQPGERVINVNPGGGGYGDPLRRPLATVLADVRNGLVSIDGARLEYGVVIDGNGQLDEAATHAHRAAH

[2] = biological target: T1, caprolactamase (CapA, CapB; α and β subunits); experiment: UPLC-MS of 6-ACA formation; ATP dependence; conditions: co-substrate caprolactam, MgCl2, pH 8.5
[3] = biological target: T2, PjAT (6-aminohexanoate aminotransferase, omega aminotransferase) (Pseudomonas jessenii, UniProt A0A2W0F5X5); experiment: alanine dehydrogenase-coupled NADH assay, […] nm; conditions: reverse direction: 2 mM substrate, 5 mM L-alanine, 0.1 mM NADH, 0.05 mM PLP, pH 8; activity sentence prints 5-oxohexanoate
T2 construct: gene CRX42_01150; full length, C-terminal His6-tag kept, pET20b+ (pET-PjAT), E. coli C41(DE3), Ni-NTA purified; ORF size 1367 bp; PLP enzyme
T2 sequence (A0A2W0F5X5 1-455): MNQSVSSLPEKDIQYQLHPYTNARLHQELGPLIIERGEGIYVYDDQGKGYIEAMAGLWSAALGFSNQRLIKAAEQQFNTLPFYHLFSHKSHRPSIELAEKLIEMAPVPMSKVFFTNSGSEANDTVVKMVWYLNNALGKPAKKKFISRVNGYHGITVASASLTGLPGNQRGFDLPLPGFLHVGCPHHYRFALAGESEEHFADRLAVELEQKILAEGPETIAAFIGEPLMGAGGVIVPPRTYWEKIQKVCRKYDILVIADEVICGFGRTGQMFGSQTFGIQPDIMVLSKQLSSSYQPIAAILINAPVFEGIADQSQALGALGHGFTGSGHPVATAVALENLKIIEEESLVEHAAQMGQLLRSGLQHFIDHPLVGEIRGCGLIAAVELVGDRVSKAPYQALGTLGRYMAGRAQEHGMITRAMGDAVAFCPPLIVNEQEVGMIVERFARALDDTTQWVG

O=C1CCCCCN1 [caprolactam]
UPLC-MS of 6-ACA formation and caprolactam loss [1]: Time course analyses demonstrated that 6-ACA levels increased and caprolactam levels decreased in time

Nc1ncnc2c1ncn2[C@@H]1O[C@H](COP(=O)(O)OP(=O)(O)OP(=O)(O)O)[C@@H](O)[C@H]1O [ATP]
UPLC-MS of 6-ACA formation; ATP dependence [2]: We demonstrated the ATP dependence of the caprolactamase activity using enzyme expressed in E. coli

O=CCCCCC(=O)O [6-oxohexanoate]
alanine dehydrogenase-coupled NADH assay, 340 nm [3]: in both directions, so with 6-oxohexanoate or with 6-ACA as substrate
